{"source": "PubChem BioAssay AID2546", "about": "(National Center for Advancing Translational Sciences (NCATS), 2010)", "note": "In all, about 310,000 compounds went through this assay and about 11,000 (3.5%) were called active. The shares of active, inactive and inconclusive entries below differ from those in the screen. Calls follow the shape of the dose curve; as a rule, active = well fitted inhibition curve with a large enough effect; inconclusive = small, poorly fitted or top-dose-only effect, or effect the other way; inactive = flat fitted curve, though single readings scatter. Potencies of inconclusive entries are left out as doubtful fits. % is scaled to controls: 0 for no effect and ±100 for the full control effect; potency is read from the fitted curve at half-maximal effect; tags tell the direction and shape of the fitted curve.", "data": [{"assay": "VP16 counterscreen qHTS for inhibitors of ROR gamma transcriptional activity;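 also: Gal4-VP16 expression switched on by copper sulfate through the metallothionein promoter; nearly all actives have a fitted effect of over 50% in size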", "settings": "Drosophila S2 Gal4-VP16 UAS-luciferase, luminescence, 20 h; activity, negative = inhibition: at 53.6 µM (top of the series)", "values": [{"compound": "COc1cc(/C=N/Nc2nncn2/N=C/c2ccc(O)c(OC)c2)ccc1O", "Potency": "inconclusive [inhibitor, single point]"}, {"compound": "Cn1cccc1-c1cc(C(=O)N2CCc3c([nH]c4ccccc34)C2c2ccccn2)[nH]n1", "note": "(centres undefined)", "activity, negative = inhibition": "inactive: -3.45%"}, {"compound": "Cc1cc(C(=O)Cn2nnc3ccccc3c2=O)c(C)n1-c1ccccc1F", "Potency": "inconclusive [inhibitor, single point]"}, {"compound": "CCc1cc2c(NCc3ccccc3)nc(C)nc2s1", "Potency": "inconclusive [inhibitor, single point]"}, {"compound": "Cc1ccc(C)c(NC(CC(=O)c2ccccc2)C(=O)OCC(=O)c2cccs2)c1", "note": "(centres undefined)", "Potency": "inconclusive [inhibitor, single point]"}, {"compound": "COc1ccc(NC(=O)O/N=C/c2c(C)nn(C(C)(C)C)c2C)cc1", "Potency": "active: 11.2 µM"}, {"compound": "CCCn1c2ccc(/C(C)=N\\O)cc2c2cc(/C(C)=N/O)ccc21", "activity, negative = inhibition": "inactive: -12.6%"}, {"compound": "Cc1noc(C)c1C(=O)N1CCC2(CCN(C(=O)NC(C)C)CC2)CC1", "activity, negative = inhibition": "inactive: -10.2%"}, {"compound": "CC1CCN(S(=O)(=O)c2ccc3c(c2)CC(C)N3C(=O)C2CCC2)CC1", "note": "(centres undefined)", "Potency": "inconclusive [inhibitor, single point]"}, {"compound": "Cc1cccc(NC(=S)NNC(=O)c2csc(C)c2)c1", "Potency": "inconclusive [inhibitor, single point]"}, {"compound": "Cc1cc2nc(N)sc2cc1[N+](=O)[O-]", "Potency": "inconclusive [inhibitor, single point]"}, {"compound": "CC(C)(C)C1CCc2onc(C(=O)Nc3cnn(Cc4ccc(F)cc4)c3)c2C1", "note": "(centres undefined)", "Potency": "active: 15.8 µM"}, {"compound": "NS(=O)(=O)c1ccc(N=Nc2c[nH]c(=O)c(O)c2)cc1", "activity, negative = inhibition": "inactive: -12.3%"}, {"compound": "C/C(=N\\NC(=O)c1csc2ccccc12)c1ccc(O)cc1", "activity, negative = inhibition": "inactive: 20%"}, {"compound": "CC(C)(C)c1ccc(OC(=O)N2CCOCC2)cc1", "Potency": "inconclusive [inhibitor, single point]"}, {"compound": "Fc1cccc(Cl)c1CNn1cn[nH]c1=S", "activity, negative = inhibition": "inactive: 2.63%"}, {"compound": "O=C(CCCNS(=O)(=O)c1cccc2nsnc12)NCCc1ccccc1", "activity, negative = inhibition": "inactive: -0.806%"}, {"compound": "Cc1ccc(S(=O)(=O)NNC(=O)c2ccc(O)cc2)cc1", "Potency": "inconclusive [activator, single point]"}, {"compound": "CCc1ccc(OCCCC(=O)NCc2ccco2)cc1", "Potency": "inconclusive [activator, single point]"}, {"compound": "O=C(NC(=S)Nc1cc(C(F)(F)F)ccc1N1CCOCC1)c1ccc(-c2cccc(Cl)c2)o1", "Potency": "inconclusive [inhibitor, single point]"}, {"compound": "Cc1cc2[nH]c(=O)c(=O)[nH]c2cc1S(=O)(=O)NC1CCCCC1C", "note": "(centres undefined)", "Potency": "inconclusive [inhibitor, single point]"}, {"compound": "O=C(/C=C/c1ccco1)NC(=S)Nc1ccccc1Br", "Potency": "inconclusive [inhibitor, single point]"}, {"compound": "CC(=O)Oc1ccc(N2C(=O)C3C4C=CC(C5CC45)C3C2=O)cc1[N+](=O)[O-]", "note": "(centres undefined)", "Potency": "inconclusive [activator, single point]"}, {"compound": "OCCC1CN(Cc2cn[nH]c2C2CCCCC2)CCN1C1CCCC1", "note": "(centres undefined)", "activity, negative = inhibition": "inactive: 2.65%"}, {"compound": "COc1ccc(CC(=O)Nc2ccc(C(=O)NC(C)(C)C)cc2)cc1", "Potency": "inconclusive [activator, single point]"}, {"compound": "Cc1cc(C(=O)NCc2ccccc2Cl)c2ccccc2n1", "Potency": "inconclusive [inhibitor, single point]"}, {"compound": "Cc1cc(OCCNCCO)cc(C)c1Cl", "activity, negative = inhibition": "inactive: 2.57%"}, {"compound": "CC1(C)CC(=S)Nc2ccccc2S1", "Potency": "active: 5.01 µM"}, {"compound": "CCc1ccc(NC(=S)NC2CC3CCCC(C2)N3Cc2cccs2)cc1", "note": "(centres undefined)", "Potency": "active: 12.6 µM"}, {"compound": "Cc1ccccc1NS(=O)(=O)c1cc(C(=O)NCCSC2CCCCC2)ccc1C", "Potency": "inconclusive [inhibitor, single point]"}, {"compound": "CCN(CC)S(=O)(=O)c1ccc(Cl)c(NC(=O)COc2ccc(OC)cc2[N+](=O)[O-])c1", "Potency": "inconclusive [inhibitor, partial curve]"}, {"compound": "COc1ccc(-n2c(C)cc(C(=O)COC(=O)Cc3n[nH]c(=O)c4ccccc34)c2C)cc1", "Potency": "inconclusive [inhibitor, single point]"}, {"compound": "O=C(CN(Cc1ccc(Cl)cc1)S(=O)(=O)c1ccccc1)NCC1CCCO1", "note": "(centres undefined)", "activity, negative = inhibition": "inactive: -1.04%"}, {"compound": "CCC(=O)NC(=S)Nc1ccc(-c2nc3ccc(C)cc3s2)cc1", "Potency": "active: 0.891 µM"}, {"compound": "O=C(Nc1nccs1)c1ccc(-c2ccc(F)c(Cl)c2)o1", "Potency": "inconclusive [inhibitor, single point]"}, {"compound": "Cc1ccccc1-c1nc(CS(=O)(=O)CC(=O)NCCc2ccccc2)c(C)o1", "Potency": "inconclusive [inhibitor, single point]"}, {"compound": "Cc1ccc(-n2ncc3c(=O)n(-c4ccc(C)c(C)c4)c(C)nc32)cc1", "Potency": "inconclusive [inhibitor, single point]"}, {"compound": "O=C(CSc1nnnn1C1CCCC1)N1CCCCC1", "Potency": "inconclusive [inhibitor, full curve]"}, {"compound": "COc1c2c(cc3c1C(NC(N)=O)[N+](C)(C)CC3)OCO2", "note": "(centres undefined)", "activity, negative = inhibition": "inactive: -3.21%"}, {"compound": "C/C(=N\\NC(N)=S)c1ccc(Cl)s1", "Potency": "active: 5.01 µM"}, {"compound": "Cc1ccc(Cl)cc1NC(=S)N(Cc1cccnc1)Cc1ccccc1Cl", "Potency": "active: 25.1 µM"}, {"compound": "Cn1cc(Cl)c(C(=O)Nc2nc3ccccc3s2)n1", "Potency": "inconclusive [inhibitor, single point]"}, {"compound": "Cc1cc(NN)nc(NS(=O)(=O)c2ccc(Cl)cc2)n1", "activity, negative = inhibition": "inactive: -22.9%"}, {"compound": "O=C(NCCc1ccc(Cl)cc1)Nc1ccc(Cl)cc1", "activity, negative = inhibition": "inactive: 4.02%"}, {"compound": "COc1ccc(S(=O)(=O)N2CCCC(C(=O)NCc3ccncc3)C2)cc1Cl", "note": "(centres undefined)", "Potency": "inconclusive [inhibitor, single point]"}, {"compound": "CCOC(=O)c1c(C)nc2ccccc2c1-c1ccccc1", "Potency": "inconclusive [inhibitor, partial curve]"}, {"compound": "CC(C)NCC(O)(c1ccc(Cl)cc1)c1ccc(Cl)cc1", "activity, negative = inhibition": "inactive: 5.13%"}, {"compound": "Cc1ccnc(NC(=O)C2COc3ccccc3O2)c1", "note": "(centres undefined)", "Potency": "inconclusive [inhibitor, single point]"}, {"compound": "Cc1cccc(Cl)c1NC(=S)NN", "Potency": "inconclusive [inhibitor, single point]"}, {"compound": "COC(=O)CCC(C)C1CCC2C3C(O)C[C@@H]4CC(O)CC[C@@]4(C)C3CC(O)[C@]12C", "note": "(some centres undefined)", "activity, negative = inhibition": "inactive: -2.44%"}, {"compound": "Cc1ccccc1Nc1nc(-c2sc(NC(=O)c3ccccc3)nc2C)cs1", "Potency": "inconclusive [inhibitor, partial curve]"}, {"compound": "CCn1c(SCC(=O)NC2CCCC2)nnc1-c1ccco1", "activity, negative = inhibition": "inactive: 8.59%"}, {"compound": "CC(=O)c1c(C)[nH]c(-c2ccccc2)c1C", "Potency": "inconclusive [inhibitor, single point]"}, {"compound": "CCOC(=O)Cn1nc(-c2ccc(Cl)cc2)ccc1=O", "Potency": "inconclusive [inhibitor, single point]"}, {"compound": "O=C(Nc1ccc(-c2nc3ccccc3o2)c(O)c1)c1cc(-n2cnnc2)ccc1Cl", "Potency": "inconclusive [inhibitor, single point]"}, {"compound": "CCCCN(C)CCNC(=O)c1cc2c(=O)[nH]c3ccccc3c2n1C", "Potency": "inconclusive [inhibitor, full curve, poor fit]"}, {"compound": "S=C(NCC1CCCO1)N1CCN(c2nc(-c3ccc(Cl)cc3)cs2)CC1", "note": "(centres undefined)", "Potency": "inconclusive [inhibitor, partial curve, poor fit]"}, {"compound": "c1ccc(N2CCN(c3nc(NCc4ccco4)c4ccccc4n3)CC2)cc1", "Potency": "inconclusive [inhibitor, single point]"}, {"compound": "CCn1c(O)c(C=Nc2ccccc2)sc1=O", "Potency": "inconclusive [activator, full curve]"}, {"compound": "O=C(N/N=C/c1cc(Br)ccc1O)C(=O)Nc1ccccc1OC(F)(F)C(F)F", "Potency": "active: 2.82 µM"}, {"compound": "O=C1c2ccccc2C(=O)c2cc(S(=O)(=O)Nc3ccccc3)ccc21", "Potency": "inconclusive [inhibitor, single point]"}, {"compound": "COc1ccc(C(=O)NC(=S)N2CCC(C)CC2)cc1Br", "Potency": "active: 0.891 µM"}, {"compound": "CNC(=O)NC(=O)C(C)OC(=O)c1oc2ccccc2c1CSc1ccc(Cl)cc1", "note": "(centres undefined)", "Potency": "inconclusive [inhibitor, partial curve]"}, {"compound": "COc1ccc2c(=O)c(Oc3ccc(C(=O)O)cc3)c(C(F)(F)F)oc2c1", "Potency": "active: 12.6 µM"}, {"compound": "CN1C(=O)/C(=C2\\SC(=S)N(NC(=O)c3cccnc3)C2=O)c2ccccc21", "Potency": "inconclusive [inhibitor, partial curve, poor fit]"}, {"compound": "COC(=O)CSCC(=O)Nc1nnc(-c2ccccc2C)s1", "Potency": "inconclusive [inhibitor, single point]"}, {"compound": "CCCSc1nc(NCc2ccco2)c2c3c(sc2n1)COC(C)(C)C3", "Potency": "inconclusive [activator, partial curve]"}, {"compound": "COc1ccc(CNC(=O)c2nccnc2CO)cc1", "activity, negative = inhibition": "inactive: 6.98%"}, {"compound": "CC(=O)Nc1ccc(C2C(=O)c3ccccc3C2=O)cc1", "activity, negative = inhibition": "inactive: -2.29%"}, {"compound": "CCCc1cc(-c2n[nH]c(C)c2-c2ccc(C(=O)OCC)o2)c(O)cc1O", "activity, negative = inhibition": "inactive: 1.23%"}, {"compound": "COc1cc(NC(=S)Nc2ccc(OC(F)F)cc2)cc(OC)c1", "Potency": "inconclusive [inhibitor, single point]"}, {"compound": "O=C(Nc1ccon1)Nc1ccc(Cl)cc1Cl", "Potency": "inconclusive [activator, single point]"}, {"compound": "CC(=O)Nc1ccc(N2C(C(C)=O)=NN(c3ccc(Cl)cc3)C2c2sccc2C)cc1", "note": "(centres undefined)", "Potency": "inconclusive [inhibitor, single point]"}, {"compound": "CC1(C)CC(=O)C(C2c3ccccc3Oc3ccccc32)C(=O)C1", "Potency": "inconclusive [activator, single point]"}]}]}
